SMILES strings stand for the structures. In all, about 3,600 compounds were measured (“viability index relative to DMSO control”: median about 0.81, lowest 2% from about 0.13 on). This is one part of the list.
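Further: 384-well serum-free SaLSSA: MitoTracker Red CMXRos staining with saponin lysis, high-content imaging, treated-well particle count divided by plate-mean count of DMSO wells.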

The assay deals with Plasmodium falciparum NF54 stage V gametocytes. As to the kind of experiment: viability index relative to DMSO control (fraction); higher = less gametocyte killing. The note with it: 1.25 µM, incubation time: 72 h.
For the compound `CC(=NO)c1ccc2c(c1)C(C)(C)CCC2(C)C`, the viability index is 1.05. Next, `N#CCSc1nc2ccccc2c2nc(CCc3c[nH]c4ccccc34)nn12`: 0.988; `OC(CN1CCOCC1)Cn1cnc2c(SCc3ccccc3)ncnc21` (configuration not stated): 0.759. For the compound `O=C(Nc1ccc([N+](=O)[O-])cc1Cl)c1cc(Br)ccc1O`, the viability index came to 0.837. Next, `CN(C)S(=O)(=O)c1ccc(C(=O)Nc2nc3c(ccc4ccccc43)s2)cc1`: 0.665; `CCOC(=O)c1cnc2ccc(C(C)C)cc2c1O`: 0.731; `O=C(COC(=O)c1ccccc1O)c1ccc(Br)cc1`: 0.707. The compound `CCOc1ccc(NC(=O)CSc2nncc(=O)[nH]2)cc1` came in with a viability index of 0.779. The same measure for `Cc1cc(C)cc(Nc2cc(C)nc3ncnn23)c1`: 0.75. As to `CCCCC(=O)NC(c1ccccc1)c1ccc2cccnc2c1O` (configuration not stated), the viability index was determined as 0.776. As for `CN(C)CCNCc1cc(-c2ccnc3cc(Cl)ccc23)ccc1O`, the viability index was determined as 0.762.

Take `O=c1[nH]n(CC2COC(c3ccccc3)O2)c(=O)c2ccccc12` (configuration not stated): the viability index came out at 0.885. For the compound `CN1C2CCC1C(=Cc1ccsc1)C(=O)C2=Cc1ccsc1`, the viability index worked out at 0.859.

Take `Cc1ccc(C(C(=O)NC2CCCCC2)N(C(=O)c2ccc(-c3ccccc3)[nH]2)c2ccc(C3CCCCC3)cc2)o1` (configuration not stated): the viability index stood at 0.678. The same measure for `CN(C)c1ccc(C=Cc2cccc[n+]2C)cc1`: 1; for `CC(Cl)=CC[N+]1(CC#Cc2cccc3ccccc23)CCOCC1`: 0.556; for `COc1ccc(NC(=O)C2=C(C)Nc3c(C(=O)Nc4ccc(C)cc4)cnn3C2c2cccc(Cl)c2)cc1` (configuration not stated): 0.365. The same measure for `CCCCCN(CCCCC)C(O)c1cc2c(c3ccccc13)CCCC2` (configuration not stated): 1.07; for `COc1ccc(C2C(C(=O)c3ccc(C)cc3)=C(O)C(=O)N2CCN2CCOCC2)c(OC)c1` (configuration not stated): 0.988; for `CC(=O)NC(c1ccc(N(C)C)cc1)c1cc(Cl)c2cccnc2c1O` (configuration not stated): 0.842.

As to `CSc1nc(N)nc(SC2C=CCCC2)c1C#N` (configuration not stated), the viability index came out at 0.767. Next, `Cc1c(C(=O)N2CCN(c3ccc([N+](=O)[O-])cc3)CC2)sc2ncnc(N(C)c3ccccc3)c12`: 0.855. In turn, `C#CCN1c2ccccc2Sc2cccnc21` showed a viability index of 0.834. The compound `Cc1ccc(-c2nn(-c3ccccc3)c3[nH]c(=O)c(CNCc4ccccc4)cc23)cc1` displayed a viability index of 0.413.

`COc1ccc(NC(=O)COc2ccccc2C(C)C)c(OC)c1` had a viability index of 0.736. In turn, `Cc1ccc2nc(-c3ccccc3)cc(C(=O)Nc3ccc(Cl)c(Cl)c3)c2c1` came in with a viability index of 0.902.

In turn, `Cn1nc(C(=O)Nc2ccc(F)c(Cl)c2)c2c1-c1ccccc1S(=O)(=O)C2` had a viability index of 1.1. The same measure for `COc1cc2nc(C3CCC3)n(NC(=O)c3cccc(F)c3)c(=O)c2cc1OC`: 0.87. `O=C1N(Cc2cc3ccccc3s2)CC2CN(Cc3ccsc3)CCN12` (configuration not stated): the viability index is 0.44. Compound `O=C(Nc1ccc(-c2nc3ccc(NC(=O)c4ccc(Br)o4)cc3[nH]2)cc1)c1ccc(Br)o1` gave a viability index of 1.1. The same measure for `O=C(Nc1ccc(Cl)cc1)Nc1ccc(Br)cn1`: 0.903. The compound `CCC(=O)NCc1nnc(SCc2cccc(C(F)(F)F)c2)n1-c1cccc(OC)c1` came in with a viability index of 0.865. `CC(C)CCNCC(O)Cn1c2ccc(Br)cc2c2cc(Br)ccc21` (configuration not stated): the viability index turned out to be 0.23. `CCNc1nc(NC(C)CC)nc(ON=C(C)C)n1` (configuration not stated) gave a viability index of 0.732. Next, `COc1nc(NC(=N)N)nc2ccc(C)cc12`: 0.906; `O=C(c1ccco1)N1CCN(c2ccc([N+](=O)[O-])c(NC3CC3)c2)CC1`: 0.226. For `COc1ccc(OC)c(C(=O)c2oc3ccccc3c2NC(=O)CCl)c1`, the viability index is 1.

Compound `Cc1ccc(-c2cc(C(=O)OCC(=O)c3cccc([N+](=O)[O-])c3)c3cc(C)ccc3n2)cc1` registered a viability index of 1.16. The same measure for `CCN(CC)CCN(Cc1cc2ccc(C)cc2[nH]c1=O)C(=S)NC(C)c1ccccc1` (configuration not stated): 0.903; for `NCCCNc1ncc(C(=O)NCc2ccccc2)c(NCC2CCCCC2)n1`: 0.685.

Compound `C=CCSc1oc(-c2ccco2)nc1[P+](c1ccccc1)(c1ccccc1)c1ccccc1` yielded a viability index of 0.26. Next, `Cc1ccc(N=C2S/C(=C\c3ccccc3)C(=O)N2c2ccc(C)cc2)cc1`: 0.77. Next, `Cc1cc(C)c2cc(CN(CCN(C)C)C(=S)NCCCN(C)C)c(=O)[nH]c2c1`: 1.11; `O=C(NCc1ccco1)c1cccc(Cl)c1Cl`: 0.739.

With `Oc1ccc(-c2ccc3c(c2)OCO3)cc1CNC12CC3CC(CC(C3)C1)C2`, the viability index turned out to be 0.615.

`CCOC(=O)C1CCN(C(=O)CN2C(=O)c3ccccc3C2c2c[nH]c3ccccc23)CC1` (configuration not stated) registered a viability index of 0.859. `CCOc1ccccc1NC(=O)CN1CCN(C(=O)c2ccco2)CC1` had a viability index of 0.61. Next, `CCOC(=O)c1cc(-c2ccc(Cl)cc2Cl)[nH]c1N1CCN(c2ccc(OC)cc2)CC1`: 0.791.

`CC(=O)N(Cc1ccc(F)cc1)C1=C(NCCc2ccccc2)C(=O)c2ccccc2C1=O` gave a viability index of 0.0184. `CC1=C(C(=O)OC2CCCC2)C(c2ccccc2F)C2=C(CC(c3ccccc3)CC2=O)N1` (configuration not stated) showed a viability index of 1.23. The same measure for `O=C(c1ccccc1)N1CCN(c2ccccc2NC(=O)C(Cl)(Cl)Cl)CC1`: 1.22; for `COc1cc(C(=O)ON=C(N)Cc2cccc3ccccc23)cc(OC)c1OC`: 0.918.

In the case of `CCCCSCC(O)CN1CCCCC1` (configuration not stated), the viability index was 0.954. Next, `O=C(Nc1ccc(-c2cn3cccnc3n2)cc1)c1ccccc1I`: 0.829; `CCN(CC)CCNc1ncnc2c1[nH]c1ccc(Br)cc12`: 0.78.

`CCC(c1nc2ccccc2c(=O)n1-c1cccc(C)c1)N(Cc1ccccc1)C(=O)Nc1c(C(C)C)cccc1C(C)C` (configuration not stated) yielded a viability index of 0.887. Next, `c1cncc(CCNc2nccn3c(-c4ccc5ccccc5c4)cnc23)c1`: 0.786; `Cc1ccc(S(=O)(=O)Nc2ccc(C(=O)NCCC(C)C)cc2)cc1`: 0.971; `CCOC(=O)N1CCc2c(sc(NCc3ccc(C)o3)c2C(=O)Nc2ccc(OC)cc2OC)C1`: 1.3.

In the case of `O=C(NCc1c(Cl)cccc1Sc1ccc(Cl)cc1)c1ccc2c(c1)CCO2`, the viability index was found to be 0.805.

In turn, `CCOc1ccc2nc(Sc3nc(Nc4cccc(C)c4)nc(Nc4cccc(C)c4)n3)sc2c1` gave a viability index of 1.02. Next, `COc1cc(C(=O)Nc2ccc3nc4n(c(=O)c3c2)CCCCC4)cc(OC)c1OC`: 1.42; `CCCOC(=O)C1=C(C)NC2=C(C(=O)CCC2)C1c1cc(Br)c(O)c(OCC)c1` (configuration not stated): 1.1. Next, `COc1ccc(C2Sc3ccccc3N=C3C2=C(O)c2ccccc23)cc1` (configuration not stated): 0.667. Next, `COc1ccc(CN2CCC(C(=O)Nc3ccc(Oc4cccnc4)cc3)CC2)cc1`: 0.856; `OCCNc1nc(Nc2ccc(F)cc2)nc2ccccc12`: 0.656; `Cc1ccc(NC(=O)C2C3C=CC4(O3)C2C(=O)N(Cc2cccnc2)C4C(=O)NC2CCCCC2)cc1` (configuration not stated): 1. Compound `c1ccc(CC[n+]2cc(-c3ccccc3)n3c2CCC3)cc1` showed a viability index of 0.619. With `CCOC(=O)CN(C)Cc1ccc2c(NC(=O)c3ccc(C)s3)c(C(=O)OC)sc2n1`, the viability index was 0.846. Next, `CCC(C)NC(=O)CN(c1cc(OC)ccc1OC)S(C)(=O)=O` (configuration not stated): 0.814; `Cc1cc(Nc2ccc(Cl)cc2)nc(NCc2ccccc2)n1`: 0.498; `CCN1/C(=C\C=C2/SC(=S)N(c3ccccc3)C2=O)C(C)(C)c2cc(-c3ccccc3)ccc21`: 0.983. The same measure for `OCC[n+]1c2ccccc2nc2ccc(N3CCOCC3)cc21`: 1.2; for `Cc1nc(C(C)N(C)Cc2c(C(=O)N3CCCCCCC3)nc3sccn23)c(C)s1` (configuration not stated): 1.1; for `CCCC(=O)NC(c1ccc(Cl)cc1)c1ccc2cccnc2c1O` (configuration not stated): 0.622. Consider `O=C(NCc1n[nH]c(=S)n1-c1ccc(Br)cc1)c1cccc2ccccc12`, for which the viability index came out at 0.604.

`CSC1=NC(=Nc2c(C)cccc2C)C2(CCC(C(C)(C)C)CC2)N1c1ccc(Cl)cc1` (configuration not stated) came in with a viability index of 0.576. The compound `CCOc1ccc(N=C2NC(=O)SC2=C2C(=O)Nc3ccc(Br)cc32)cc1` had a viability index of 1.01. `CCOc1ccc2[nH]c(=O)c(CN(CCN3CCCC3)C(=S)Nc3ccc(F)cc3)cc2c1` had a viability index of 0.885. The same measure for `Clc1ccccc1-c1nc([P+](c2ccccc2)(c2ccccc2)c2ccccc2)c(N2CCOCC2)o1`: 0.265; for `O=C(NC1CCCCC1)c1noc2c1CCCCC2`: 1.2.

`CCc1ccc2[nH]c(=O)c(CN(CCO)C(=S)Nc3ccccc3CC)cc2c1` yielded a viability index of 0.724. As for `CCCC(=O)NC(c1cccc([N+](=O)[O-])c1)c1ccc2cccnc2c1O` (configuration not stated), the viability index was 0.67. Take `Cc1cc(C)[n+](C)n1CC(O)Cn1c2ccccc2c2ccccc21` (configuration not stated): the viability index turned out to be 0.789. The same measure for `CCN1CC=C2C(C#N)=C(N)C(C#N)(C#N)[C@H](c3ccc(C)s3)[C@H]2C1`: 1.1; for `Cc1cc(O)ccc1-c1cnc2ccccc2n1`: 1. Next, `CCn1c(CSc2nc(C)cc(C)n2)nnc1SCC(N)=O`: 1.13; `Cn1cc(S(=O)(=O)c2cccc(Cl)c2)c(=O)c2cc(F)c(N3CCCCC3)cc21`: 0.843; `CCOc1ccc2nc(C)c(CN(C)Cc3ccccc3)c(O)c2c1`: 0.68.

Consider `Oc1ccccc1CN1CCN(C(c2ccccc2)c2ccccc2)CC1`, for which the viability index was found to be 0.65.

`CCN(CC)c1ccc(C=Cc2cccc[n+]2CC)cc1` displayed a viability index of 0.851. Next, `COC(=O)CNC(c1ccccc1)c1cc(Br)ccc1NC(=O)C(Cc1ccccc1)NC(=O)OCc1ccccc1` (configuration not stated): 1.14.

The values above are taken from the supplement of paper PMC4723716.
